# Test results as given in the supplement of paper PMC11417369.
# Some of the results follow.
# System: PfSIP2 AP2 domain 1 (GST-tagged)
# Test: gcPBM binding intensity (ln(normalized median fluorescence intensity)); higher = stronger DNA binding
# Outline: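 GST-fused DNA-binding domains of P. falciparum, expressed in E. coli, were applied at about 25 μg on average for 1 h to an Agilent 4 × 180k array of primer-extended double-stranded 36-bp intergenic genomic probes and negative controls. Binding intensity is the highest Masliner-normalised natural-log median intensity across replicate spots of either probe orientation, measured with Alexa488 anti-GST antibody and a 488 nm scan.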
row,Sequence,gcPBM binding intensity (ln)
1,ACAAATAAATATTCGCGTACTTATATAATATTACGA [XGTACX_site6428],7.02
2,AACAAACAAATAGTTTATTTTGATTTTTTTAAAAAT [CACACA_negctrl_site693],6.67
3,AAAAAAAATATCCGACGTACTATTTTCGTAGAAATA [XGTACX_site6292],6.83
4,AAAAAAAAAAAAAAAAAAAAAAAAATCACACATTGG [TGCATGCA_negctrl_site412],8.67
5,TTTTGGATGTATTATACATGCATATTATTATAATAT [TGCATGCA_site997],7.25
6,AAAAAAAAAAAATAAAGTACTAAATAATACATTATA [XGTACX_site6203],7.02
7,AGAAAAGAAATTAAATGTACACAACTATAACCAAAT [XGTACX_site8084],7.44
8,TGTACAACAATTTTTGCACACACCAAAACATAAAAT [CACACA_site1598],7.36
9,TTTTATAAAATATAATATAATAATATATGTATAATA [CACACA_negctrl_site1788],6.78
10,ATATATCTACAAATATGTACACACACACATATATAT [XGTACX_site1075],7.33
11,TTTTTTACAATTAACACACTCAAAAATAATATTAAA [CACACA_site5198],6.97
12,AATTTTTTAAATGTGTGTACATATTATTTAAATAAT [XGTACX_site5967],6.9
13,TATATTATATATATATGTACATATGGCAAAACATTA [XGTACX_site7958],7.29
14,AAAAAAAAAAAAAAATGTACCCATAAAATAAGCATT [XGTACX_site8576],7.47
15,AATCACAACGAACACACACACAAAAAAAAAAAAAAA [CACACA_site6790],7.22
16,ATATATATATCTAATTGTACATATTTTATAAATAAG [XGTACX_site4840],8.45
17,AAAAATTAAATGTACACACACCTTAAACAATGTCAT [CACACA_site6958],7.11
18,AAATACTGATTTGGTTGTACATGTGCACTATATAAC [XGTACX_site3795],11.4
19,ATAAATATATTTATATGTACATATAATTTTACATAT [XGTACX_site5440],7.28
20,TATAATCTAACATAATGTACATGTATATGCACTTTA [XGTACX_site369],9.37
21,AATATAAATACTCCTACACACATATAAATATAAATA [CACACA_site7419],7.27
22,TCCACATTAATGTAATGTACAAAATTAGAAAATAAA [XGTACX_site6287],6.95

row,Sequence,gcPBM binding intensity (ln)
1,TTTTGATTAAGTGAATTTTTTTATTTATATAAATAT [TGCATGCA_negctrl_site479],6.79
2,TACGAATTAAAAAAGAGTACAAATAAAATATCTACA [XGTACX_site7412],6.73
3,CATACATACATATATACACACATATATAATAATATA [CACACA_site2678],7.32
4,AATTAGCTCAAAGGTTGTACAAATATATTTTAATGG [XGTACX_site2352],6.88
5,TTTTAAACACCAATCAAAAAAATATAAATATAAATA [TGCATGCA_negctrl_site552],7.08
6,AAAAAAAATAATTTGCGTACATAAAAATTTATAGGA [XGTACX_site3016],7.44
7,AAATTTTTTTTTGTCATATGATGTTTGAACCCAAAT [CACACA_negctrl_site1659],7.08
8,TCCGTATATTTATACGCATGCATTATGAACATTGTT [TGCATGCA_site613],6.96
9,TTACATTGTAAAAAGTGTACATATAATTTAATTAAT [XGTACX_site1834],7.13
10,ATGTAGACTGAAACCACACACACATATATATATATA [CACACA_site606],9.33
11,GGATTACAAATAGGTTGTACGTTTTTTTTTTTTTCT [XGTACX_site3605],7.27
12,AATTTATTTTTTTAATGTACATATGGTATAAATATA [XGTACX_site8012],7.06
13,TGTTGATTTCTCAAATGTACTTTACTTTTCTTCAGA [XGTACX_site7916],6.76
14,TTTTTTTTTTTTAATTGTACATTTTATATAAACTTT [XGTACX_site6806],6.99
15,AATATATATATATGTACACACTCCAATACATATACA [CACACA_site2682],7.33
16,TTAAGAATATCTTAGAGTACATTTTATCATCTTAAA [XGTACX_site8298],6.67
17,TCTTTTTAAATTACTATAATACATTCATAAATTATA [GTGCAC_negctrl_site448],6.99
18,TTTTTTTATTTTATAAAGCAAAAATAAGAATGAAAT [XGTACX_negctrl_site270],7.28
19,AGGGAATAAGTAAGGTGTACATAATTATGTTACTTT [XGTACX_site6152],7.15
20,TATATGTATGTATGTACACACAAAAAATGGAATATA [CACACA_site3717],7.17
21,ATATATATTTATATTTGTACGAATTAAAATTTTTTA [XGTACX_site5200],7.11
22,ATTTAAAACAAAAGTAGTACGTCTAATAAATTCAAC [XGTACX_site4344],6.93

row,Sequence,gcPBM binding intensity (ln)
1,TTATCAATAAAATGCACACACTGTAATATTATTAAA [CACACA_site6055],7.18
2,ATAGCTTTTATTTAAAGTACAAAAAGGATGTTGAAA [XGTACX_site3810],6.95
3,AGACAAAATGTTTGAAGTACTTTTTATCAAATTAAA [XGTACX_site8885],6.86
4,AAAAAAAAAAAACACACACACACACCCATACATACA [CACACA_site707],7.14
5,TGATTTTTTCATATTCTACACACGTGAACAAATGTG [CACACA_site8987],6.84
6,TTAATTATTATATAAGTGCAATAATAAAAAGTTGTA [GTGCAC_site9552],7.68
7,TTGTTAATAAATAAATAAATAAATATATTTATATAT [GTGCAC_negctrl_site271],6.88
8,TACAAAAAAAAAAAATAGATAAAATAATAATCAAAT [TGCATGCA_negctrl_site524],6.69
9,ATATATTGAACATATTGTACATTTTGTTAATATTTT [XGTACX_site7622],6.91
10,TCTCAAGTTGTTAAAAAATAAAAACAATAAATCTAA [CACACA_negctrl_site165],6.75
11,AACAATTGGAATAACGCATGCATTTATAATATAGAA [TGCATGCA_site298],7.01
12,CAATTTTTTAAATGCACACAAAAGGAATAAATAAAT [CACACA_site544],8.6
13,AAGAAGAAATGCTTTGCATGCAAATTTTATGCCAAC [TGCATGCA_site721],6.64
14,TGAATATTCCTATGCACACAAATTAAAATACATAAT [CACACA_site4403],7.92
15,ACAAATTTATACTTAAAACACACGTAATCATTTATA [CACACA_site1636],7.12
16,TAAAATAATTTATGCATACACACATATATATATATA [CACACA_site4021],9.23
17,TACAATTTTTTAAATGCACACAAAAGGAATAAATAA [CACACA_site8075],9.32
18,TAATATATGTATTGCACACCTATAACCATTATTTCT [CACACA_site1498],7.06
19,AAAAGCAAGTTCCAGGGTACATATATATGAAAAAAC [XGTACX_site2408],7.1
20,AAAAATATGTCCATGAAAAGGATAGGCAGGTAATCA [XGTACX_negctrl_site93],6.78
21,AAATATATTTTACATTGTACATGAATAAACTATAAA [XGTACX_site2080],7.05
22,AAAAATTAAATAAATTTACACACTAATAATTACATA [CACACA_site8260],6.53

row,Sequence,gcPBM binding intensity (ln)
1,TCTTGTTTTCAAATATGTACATAGAATAGACATTTT [XGTACX_site684],6.98
2,AAATATATAAAATATACACACAGTAATATATATATA [CACACA_site1385],8.61
3,AAGTTTTATTTAAATTGTACTAAAATTTTTATATTA [XGTACX_site7065],6.84
4,TATATATAAATATTCAGTACATAGTATTATTAAGTA [XGTACX_site1980],6.98
5,ATAAAATGAACAAACACACACACATATATATATATA [CACACA_site2402],9.2
6,CCTAAAAAAAAGAAATGATATACATATGTATATATA [GTGCAC_negctrl_site100],7.02
7,CATATAAATAAATACACACACACACGCCTTATAATT [CACACA_site7830],7.2
8,TATTTAAGAATATGAAGTACATATATTATTTAAAAA [XGTACX_site7897],7
9,TATATAGGTATCATTACACACATGTATACTTATTTG [CACACA_site7864],7.14
10,TTTTTCTTTCTCTATTGTACACATGGAAACACATAA [XGTACX_site4601],7.48
11,TTCATTTTAATTTCCAGTACACATATATATACATAT [XGTACX_site558],7.2
12,ATGTCATAAATGTACGCACACATACATAAACATATA [CACACA_site4530],7.33
13,ATTTATTTCTATAATACACACAAATATCTTAATTAA [CACACA_site7801],6.77
14,AATATAATACAATATTGTACATAATATAAATTAAAA [XGTACX_site4064],6.94
15,TATATGTTATATTGGACACACACAATAAACATTATG [CACACA_site8480],7.03
16,AAACATAAAGAAAAAAAAAATATATATTTATTTATT [GTGCAC_negctrl_site357],6.75
17,ATATATTAACAAAAGGTGCTTTTGGCAAAGTATAAT,8.1
18,TTATTTAAATATTGATGTACTCTCCTTATTATAATA [XGTACX_site1240],7.13
19,ATAAAAATGGTGTTAACACACACATATATATATATA [CACACA_site8089],9.45
20,GGTAATTATTTTGGTTGTACTCAAATATATAATATT [XGTACX_site291],7.4
21,GAGAAAGATATATACACACACATAAATATGTACATA [CACACA_site6975],7.03
22,TTTCCCAAGCTTATTACACACAAGTAGAATAAGCTT [CACACA_site1561],6.81
